In all, about 3,200 compounds went through this assay and about 110 (3.4%) showed an effect of 50% or more. The list shows a part of the results.
Test system: T1, V. cholerae SAD30
T1 construct: SAD30
Design: species or system S. aureus MSSA476 (TSB) or V. cholerae SAD30 (LB); 384-well bacterial growth screen at 25 uM, OD600 relative to DMSO control
Details: relative growth, OD600, LB; 25 µM; inhibitor

SMILES | % of control remaining [%]
O=C(CCl)N(Cc1ccc2c(c1)CCO2)C1CCCC1 [6-L11, 2-chloro-N-cyclopentyl-N-[(2,3-dihydro-1-benzofuran-5-yl)methyl]acetamide] | 89.7905
C#CCN(C(=O)c1ccc(NC(=O)C=C)cc1)C1CCCCC1 [3-D13, N-cyclohexyl-4-(prop-2-enamido)-N-(prop-2-yn-1-yl)benzamide] | 98.0886
CC(Cl)C(=O)N1CCOC(c2ccnc(N(C)C)n2)C1 (centres unmarked) [6-L05, 2-chloro-1-{2-[2-(dimethylamino)pyrimidin-4-yl]morpholin-4-yl}propan-1-one] | 81.4485
O=C(CCl)NCCc1c[nH]c2c(F)c(F)c(F)cc12 [7-H16, 2-chloro-N-[2-(5,6,7-trifluoro-1H-indol-3-yl)ethyl]acetamide] | 90.4015
O=C(CCl)c1cc(Cl)sc1Cl [10-D16, 2-chloro-1-(2,5-dichlorothiophen-3-yl)ethan-1-one] | 21.5079
Cc1cc(C(=O)CCl)c(C)[nH]1 [10-J08, 2-chloro-1-(2,5-dimethyl-1H-pyrrol-3-yl)ethan-1-one] | 99.1233
CC(Cl)C(=O)N1Cc2cnn(C)c2C1 (centres unmarked) [7-K09, 2-chloro-1-{1-methyl-1H,4H,5H,6H-pyrrolo[3,4-c]pyrazol-5-yl}propan-1-one] | 81.282
CC(Cl)C(=O)NCCNC(=O)c1ccoc1 (centres unmarked) [7-E21, 2-chloro-N-{2-[(furan-3-yl)formamido]ethyl}propanamide] | 84.454
O=C(CCl)c1ccc(F)cc1F [10-I18, 2-chloro-1-(2,4-difluorophenyl)ethan-1-one] | 22.7547
C=CC(=O)NCC1CN(Cc2cccc(C)c2)CCO1 (centres unmarked) [3-A05, N-({4-[(3-methylphenyl)methyl]morpholin-2-yl}methyl)prop-2-enamide] | 122.966
C=CC(=O)NCCc1coc(-c2ccc(C)cc2)n1 [1-M06, N-{2-[2-(4-methylphenyl)-1,3-oxazol-4-yl]ethyl}prop-2-enamide] | 81.3154
C=CC(=O)NC(C)c1ccc2c(c1)CCC2 (centres unmarked) [3-F09, N-[1-(2,3-dihydro-1H-inden-5-yl)ethyl]prop-2-enamide] | 89.0902
CCCNC(=O)C(C#N)=Cc1ccc(-n2cncn2)c(C)c1 [9-C05, 2-cyano-3-[3-methyl-4-(1H-1,2,4-triazol-1-yl)phenyl]-N-propylprop-2-enamide] | 87.7634
C=CC(=O)NCc1cc(Cl)c2c(c1)OCO2 [2-F15, N-[(7-chloro-1,3-dioxaindan-5-yl)methyl]prop-2-enamide] | 80.469
O=C(CCl)NC1CCN(C(=O)c2ccco2)c2ccccc21 (centres unmarked) [5-O07, 2-chloro-N-[1-(furan-2-carbonyl)-1,2,3,4-tetrahydroquinolin-4-yl]acetamide] | 100.368
CC(Cl)C(=O)N1CCN(C(=O)Cc2cccc(Cl)c2)C(C)C1 (centres unmarked) [7-E20, 2-chloro-1-{4-[2-(3-chlorophenyl)acetyl]-3-methylpiperazin-1-yl}propan-1-one] | 74.6737
COCC(NC(=O)C(C)Cl)c1cccc(C#N)c1 (centres unmarked) [6-L19, 2-chloro-N-[1-(3-cyanophenyl)-2-methoxyethyl]propanamide] | 89.4872
O=C(CCl)N(Cc1ccco1)C12CC3CC(CC(C3)C1)C2 [4-J18, N-(adamantan-1-yl)-2-chloro-N-[(furan-2-yl)methyl]acetamide] | 70.5629
O=C(CCl)NCC1CCN(C(=O)c2ccccc2)CC1 [7-L06, N-[(1-benzoylpiperidin-4-yl)methyl]-2-chloroacetamide] | 86.5686
C=CC(=O)N(Cc1cc(C)c2ncccc2c1)C(C)C1CCCO1 (centres unmarked) [1-P15, N-[(8-methylquinolin-6-yl)methyl]-N-[1-(oxolan-2-yl)ethyl]prop-2-enamide] | 91.1809
CC(c1ccc(S(N)(=O)=O)cc1)N(C)C(=O)CCl (centres unmarked) [7-H12, 2-chloro-N-methyl-N-[1-(4-sulfamoylphenyl)ethyl]acetamide] | 82.6037
Cc1c(C(=O)N2CCN(C(=O)C(C)Cl)CC2)sc2ccccc12 (centres unmarked) [7-H09, 2-chloro-1-[4-(3-methyl-1-benzothiophene-2-carbonyl)piperazin-1-yl]propan-1-one] | 76.524
CC(C)CN(C(=O)CCl)C1CCS(=O)(=O)C1 (centres unmarked) [4-D12, 2-chloro-N-(1,1-dioxo-1lambda6-thiolan-3-yl)-N-(2-methylpropyl)acetamide] | 102.135
C=CC(=O)N(C1CCCC1)C(C)c1nnc2ccccn12 (centres unmarked) [2-B07, N-cyclopentyl-N-(1-{[1,2,4]triazolo[4,3-a]pyridin-3-yl}ethyl)prop-2-enamide] | 90.8135
Cn1ncc(C(=O)CCl)n1 [10-J10, 2-chloro-1-(2-methyl-2H-1,2,3-triazol-4-yl)ethan-1-one] | 112.838

SMILES | % of control remaining [%]
C=CC(=O)NC1CCCN(Cc2ccccc2)C1 (centres unmarked) [1-K12, N-(1-benzylpiperidin-3-yl)prop-2-enamide] | 78.7743
CCC(C)c1ccccc1NC(=O)CCl (centres unmarked) [6-K11, N-[2-(butan-2-yl)phenyl]-2-chloroacetamide] | 86.4537
COc1cc(NC(=O)CCl)cc(OC)c1 [4-G09, 2-chloro-N-(3,5-dimethoxyphenyl)acetamide] | 105.068
Cc1cccc(NC(=O)CCl)c1C [4-D04, 2-chloro-N-(2,3-dimethylphenyl)acetamide] | 113.004
CNC(=O)C(F)(F)C1(O)CCN(C(=O)CCl)CC1 [5-F03, 2-[1-(2-chloroacetyl)-4-hydroxypiperidin-4-yl]-2,2-difluoro-N-methylacetamide] | 95.9966
CC(Cl)C(=O)N1CCN(Cc2ccnn2C)CC1 (centres unmarked) [7-I22, 2-chloro-1-{4-[(1-methyl-1H-pyrazol-5-yl)methyl]piperazin-1-yl}propan-1-one] | 88.9476
N#CC(=Cc1ccco1)C(=O)NS(=O)(=O)c1cccc2cnccc12 [9-H20, 2-cyano-3-(furan-2-yl)-N-(isoquinoline-5-sulfonyl)prop-2-enamide] | 87.6275
CC(Cl)C(=O)Nc1ccc(S(=O)(=O)N2CCCC2)cc1 (centres unmarked) [6-M13, 2-chloro-N-[4-(pyrrolidine-1-sulfonyl)phenyl]propanamide] | 90.7005
C=CC(=O)NCCc1ccc(S(C)(=O)=O)cc1 [2-A14, N-[2-(4-methanesulfonylphenyl)ethyl]prop-2-enamide] | 89.5783
CC(Cl)C(=O)NCCc1nnc(C(C)C)s1 (centres unmarked) [7-E03, 2-chloro-N-{2-[5-(propan-2-yl)-1,3,4-thiadiazol-2-yl]ethyl}propanamide] | 92.2518
C=CC(=O)NCc1nc(C(C)(C)O)n[nH]1 [2-E15, N-{[3-(2-hydroxypropan-2-yl)-1H-1,2,4-triazol-5-yl]methyl}prop-2-enamide] | 92.8206
CC(Cl)C(=O)N1CCN(C(C)c2cccc(C#N)c2)CC1 (centres unmarked) [7-P22, 3-{1-[4-(2-chloropropanoyl)piperazin-1-yl]ethyl}benzonitrile] | 96.7454
Cc1cc(N(CCC#N)C(=O)CCl)ccc1Cl [4-K15, 2-chloro-N-(4-chloro-3-methylphenyl)-N-(2-cyanoethyl)acetamide] | 98.6845
C=CC(=O)Nc1nc(Cc2ccccc2)c(C)s1 [1-B16, N-(4-benzyl-5-methyl-1,3-thiazol-2-yl)prop-2-enamide] | 87.0952
Cc1ccc(NC(=O)C(C#N)=Cc2ccsc2)c(C)c1 [9-M19, 2-cyano-N-(2,4-dimethylphenyl)-3-(thiophen-3-yl)prop-2-enamide] | 88.1713
N#CC(=Cc1ccccc1O)C(=O)Nc1cccc2ncccc12 [9-G04, 2-cyano-3-(2-hydroxyphenyl)-N-(quinolin-5-yl)prop-2-enamide] | 94.6975
COCc1noc(CN2CCN(C(=O)C(C)Cl)CC2)n1 (centres unmarked) [7-I06, 2-chloro-1-(4-{[3-(methoxymethyl)-1,2,4-oxadiazol-5-yl]methyl}piperazin-1-yl)propan-1-one] | 83.2645
CC(Cl)C(=O)NCc1conc1C1CCC1 (centres unmarked) [5-L21, 2-chloro-N-[(3-cyclobutyl-1,2-oxazol-4-yl)methyl]propanamide] | 101.713
N#CC(=Cc1cc2c(cc1[N+](=O)[O-])OCO2)C(=O)NC1CCCCC1 [8-F22, 2-cyano-N-cyclohexyl-3-(6-nitro-1,3-dioxaindan-5-yl)prop-2-enamide] | 83.6846
C=CC(=O)Nc1cc(-c2ccco2)nn1C(C)(C)C [1-K19, N-[1-tert-butyl-3-(furan-2-yl)-1H-pyrazol-5-yl]prop-2-enamide] | 90.1345
CC(C)C(NC(=O)CCl)c1ccc(Cl)cc1F (centres unmarked) [7-J22, 2-chloro-N-[1-(4-chloro-2-fluorophenyl)-2-methylpropyl]acetamide] | 94.8951
C=CC(=O)N1CCC(C(=O)N[C@H]2CCO[C@@H]2c2cccnc2)CC1 (racemic) [2-G20, rac-1-(prop-2-enoyl)-N-[(2R,3S)-2-(pyridin-3-yl)oxolan-3-yl]piperidine-4-carboxamide] | 97.2981
N#CC(=Cc1ccco1)C(=O)Nc1cccc2ncccc12 [8-B20, 2-cyano-3-(furan-2-yl)-N-(quinolin-5-yl)prop-2-enamide] | 75.7988
CC(Cl)C(=O)N1CCn2c(cc3c(Cl)cccc32)C1 (centres unmarked) [7-D17, 2-chloro-1-{9-chloro-1H,2H,3H,4H-pyrazino[1,2-a]indol-2-yl}propan-1-one] | 54.3202
N#CC(=Cc1cccs1)C(=O)Nc1cccc2ccccc12 [9-M22, 2-cyano-N-(naphthalen-1-yl)-3-(thiophen-2-yl)prop-2-enamide] | 90.6186

From PMC11995724, “Antibiotic target discovery by integrated phenotypic and activity-based profiling of electrophilic fragments” (Cell chemical biology, 2025)
